Source: the supplement of paper PMC4604168 (melanoma cell lines)
The other results are listed elsewhere or left out. Single values are uncertain, as repeats are few or missing.

system: G361; experiment: cell count relative to DMSO control; melanoma cells; higher = more viable cells; conditions: library dose: low library concentration; 72 h
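Note: cell number obtained by counting DAPI-stained nuclei in high-throughput microscope images with image analysis software, screen run in 1,536-well plates.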

Q: `Cn1c(=O)n(-c2ccc(C(C)(C)C#N)cc2)c2c3cc(-c4cnc5ccccc5c4)ccc3ncc21` + COc1ccc(Cl)c(Nc2nc3ccccc3nc2NS(=O)(=O)c2cccc(NC(=O)C(C)(C)N)c2)c1 [XL147] (first compound 0.004 µM, partner dose 0.8 µM) was tested. Which cell count did it give?
A: 94.9%

Q: `Cc1cn(-c2cc(NC(=O)c3ccc(C)c(Nc4nccc(-c5cccnc5)n4)c3)cc(C(F)(F)F)c2)cn1` [nilotinib] + NC(=O)c1ccc(N(C(N)=O)c2c(F)cccc2F)nc1-c1ccc(F)cc1F [VX702] (first compound 0.2 µM, partner dose 0.4 µM) was tested. Which cell count did it give?
A: 112%

Q: With `Cc1cn(-c2cc(NC(=O)c3ccc(C)c(Nc4nccc(-c5cccnc5)n4)c3)cc(C(F)(F)F)c2)cn1` [nilotinib] + O=C(O)c1ccc2c(c1)nc(Nc1cccc(Cl)c1)c1ccncc12 [CX4945] (first compound 0.2 µM, partner dose 0.4 µM) as the molecule, how does the cell count read?
A: 78.9%

Q: Which cell count does the source give for `Cc1cn(-c2cc(NC(=O)c3ccc(C)c(Nc4nccc(-c5cccnc5)n4)c3)cc(C(F)(F)F)c2)cn1` [nilotinib] + C[C@]1(O)C[C@@H](c2nc(-c3ccc4ccc(-c5ccccc5)nc4c3)c3c(N)nccn32)C1 [OSI906] (first compound 0.2 µM, partner dose 0.4 µM) here?
A: 83.5%

Q: Which cell count does the source give for `CC(C)C[C@H](NC(=O)[C@H](Cc1ccccc1)NC(=O)c1cnccn1)B(O)O` [Bortezomib] + Nc1nc(F)nc2c1ncn2[C@@H]1O[C@H](CO)[C@@H](O)[C@@H]1O [fludarabine] (first compound 0.001 µM, partner dose 0.2 µM) here?
A: 8.27%
